# The other results are listed elsewhere or left out.
# Tested on: PfSIP2 AP2 domain 1 (GST-tagged)
# Assay: gcPBM binding intensity (ln(normalized median fluorescence intensity)); higher = stronger DNA binding
# Procedure, shortened: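 An Agilent 4 × 180k array of primer-extended double-stranded 36-bp intergenic genomic probes, with negative controls, was incubated for 1 h with GST-tagged P. falciparum DNA-binding domains expressed in E. coli. Alexa488 anti-GST antibody detected bound protein, scanned at 488 nm. Binding intensity is the highest Masliner-normalised natural-log median intensity across replicate spots of either probe orientation.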
row,Sequence,gcPBM binding intensity (ln)
1,GTGAATCCTAAGTGTACACATCTTACAGATATATAT [CACACA_site4836],7.19
2,ATTTTCAAATTAAAATGTACAAATGAAAGAAAGGGA [XGTACX_site7048],7.24
3,GCACAAATCATCAAATGTACAGAAAATGCTGTCAAT [XGTACX_site5037],6.88
4,TTCCTTCATTGGAAAAGTACACAATATTGTCGTTTA [XGTACX_site8057],7.11
5,ATATAGGTATAATACACACACTAATATGTAACTGTA [CACACA_site7011],7.13
6,ATGTCATATATATGTTGTACGAGTTTGTTTATGTAT [XGTACX_site1150],7.21
7,TTCATTTTATAAAAAGCACACATATAGTTATATGCA [CACACA_site9228],6.85
8,AGTTTACATTAAATCACGCACACAAAAAAAAAAAAA [CACACA_site2419],7.16
9,TACCTTTTTTATGTTGCACACTGGGATGTTTTCTAA [CACACA_site1653],7.61
10,ATTCATATTTTTCAAGTGCGCATTAAAATATTAACC [GTGCAC_site9741],9.31
11,AATATATTTTTTTTTGGTACACAAGCACATCTATAC [XGTACX_site2183],7.36
12,TTTCGATTATGTTTTTGTACGCAATATATTAATTCT [XGTACX_site3634],7.31
13,AATGTGCAGAAAAGTGGTACATATGATTGTTAAGAG [XGTACX_site1038],7.3
14,CCATGATTATTAGATTGTACATAACATACAAATTGA [XGTACX_site314],6.83
15,AAAACAAATAAGTAAACACACATATATAATATATAT [CACACA_site2586],7.18
16,AAAAAAAAAAAAACTAGTACATATATATAGTATGAA [XGTACX_site6279],7.22
17,GAATATAAAAGGAACGGTACAGAAAAAAAAAAAAAA [XGTACX_site3917],6.87
18,TTTATTTTTTATATATCACTTAAAAAAAAAAAAAAA [CACACA_negctrl_site249],7.05
19,ATTTATATTTTATATACACACATGAACTTATATGGA [CACACA_site3167],6.99
20,ATAACCTAATAATACACACACATGAATATATATAAT [CACACA_site4689],7.11
21,CTTTTTTTTTTATGCACACACAATTATACATTCCTT [CACACA_site3877],7.58
22,AATATAGTCTCACATACACACATATATATTTATATA [CACACA_site2503],7.1

row,Sequence,gcPBM binding intensity (ln)
1,ATGTAATATATTATATGTACATATTTTTATGTAGAT [XGTACX_site5945],6.95
2,ACAAGTGTATATGTTATATATATATATATATATATA [CACACA_negctrl_site1686],9.73
3,TACGTATTCATGTATAGTACTCTTTTTTTTAATAAA [XGTACX_site3299],6.84
4,TTATTACGAACTCTGCAACATATATAAATAAATAAA [CACACA_negctrl_site44],7.25
5,AAAATAATATTTAATACACACATAATTACAATATAA [CACACA_site6510],6.94
6,AAAGATAAAATATATACACACACATAAATACGTACA [CACACA_site8275],7.26
7,ATTATATTTGAATGGTGTACTATAATAATGTAGTTT [XGTACX_site8069],7.14
8,ACATATATATATATATAAATATATATGTATGTATTT [XGTACX_negctrl_site237],7.18
9,GAATAAATTAAATTCACACATAAAATACAAAATACA [CACACA_site5495],6.9
10,CATACACGCGGACACACACACACACGCATATATAAC [CACACA_site6427],7.42
11,AAAGAAAATAGGTGTACACATAATAAATACAGCTAT [CACACA_site5917],7.64
12,CTTATATTAATTATTACACACATATATATAAATGCA [CACACA_site770],7.18
13,AAAAAAAAAAGAAACACACACATATATATATATAAT [CACACA_site5052],7.23
14,TATATATATTCTTTAAAACACACGTAAAGAAGAATT [CACACA_site2718],7.22
15,TGCTATATTATTATCGCACACCGTTGATTCTAAATA [CACACA_site1207],7
16,CATTTATTTATATACACACACACAAAAAAAAAAAAA [CACACA_site7279],7.07
17,ATAAGTGTATAAAAATGTACGTGTATAAAAATATGT [XGTACX_site8235],7.54
18,TTTTTAATTTAAAAAAATAATATTTTATATTCCGAA [CACACA_negctrl_site108],7.01
19,TATTTTTTATTTTTTTGTACATATTTGATAATTAAT [XGTACX_site316],7.09
20,GTAAGCATCAAAAAAGGTACAGAAATTATAAATAAA [XGTACX_site6708],6.89
21,AAATATTTATATATATGTACACATATAATATTTTTA [XGTACX_site2338],6.98
22,ATATATGTTATTATTTGTACACACACATATATATCC [XGTACX_site7657],7.09

# — the supplement of paper PMC11417369
